# The supplement of paper PMC8728848
# The other results are listed elsewhere or left out.
# B1: Epa6 (Candida glabrata), Q6DTM7_CANGB (protein)
# chain: MGSSHHHHHHSSGLVPRGSHMKDDYSSSLSNNNLGWTDPTEFPLGCSPNVTTPKNGLSMELYSYDYLKSGSNPCWDAAYLDPNYPRTGYKSHRLLAKVENVAGNINFYYHAPMGCTSLFDTLPQAYNYRTPLTMTNFTMLLYGYFKPKVTGYHTFTISADDLLFVNFGAGNAFDCCKRESSADDFGNYQAYAVWGSQTAKDDLTVHLDAGLYYPIRIFFNNRDNDGALSLTLKTESDPNPVIDFSDYFYSFDDTKDGCPGLVSYDTS
# How the values were obtained:
# Test in all cases: glycan array binding signal (z-score within array); higher = stronger binding
# Settings in all cases: glycan notation: IUPAC condensed, linker removed
# [1] = target: Neu5Ac(a2-6)Gal
# Summary of the method: (§1)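 The Consortium for Functional Glycomics database supplied 3228 glycan arrays, of which those lacking an available protein sequence were dropped. The binding signal, a within-array Z-score, was averaged across arrays of the same protein sequence and across linkers. Negative scores can be read as non-binding.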
# [2] = target: Neu5Ac(a2-6)Gal(b1-3)GlcNAc(b1-3)[Gal(b1-4)GlcNAc(b1-6)]Gal(b1-4)Glc
# Summary of the method: as §1
# [3] = target: Neu5Ac(a2-6)Gal(b1-4)Glc
# Summary of the method: as §1
# [4] = target: Neu5Ac(a2-6)Gal(b1-4)GlcNAc
# Summary of the method: as §1
# [5] = target: Neu5Ac(a2-6)Gal(b1-4)GlcNAc(b1-2)Man
# Summary of the method: as §1
# [6] = target: Neu5Ac(a2-6)Gal(b1-4)GlcNAc(b1-2)Man(a1-3)Man(b1-4)GlcNAc(b1-4)GlcNAc
# Summary of the method: as §1
# [7] = target: Neu5Ac(a2-6)Gal(b1-4)GlcNAc(b1-2)Man(a1-3)[Gal(b1-4)GlcNAc(b1-2)Man(a1-6)]Man(b1-4)GlcNAc(b1-4)GlcNAc
# Summary of the method: as §1
# [8] = target: Neu5Ac(a2-6)Gal(b1-4)GlcNAc(b1-2)Man(a1-3)[GlcNAc(b1-2)Man(a1-6)]Man(b1-4)GlcNAc(b1-4)GlcNAc
# Summary of the method: as §1
# [9] = target: Neu5Ac(a2-6)Gal(b1-4)GlcNAc(b1-2)Man(a1-3)[GlcNAc(b1-4)][Neu5Ac(a2-6)Gal(b1-4)GlcNAc(b1-2)Man(a1-6)]Man(b1-4)GlcNAc(b1-4)GlcNAc
# Summary of the method: as §1
# [10] = target: Neu5Ac(a2-6)Gal(b1-4)GlcNAc(b1-2)Man(a1-3)[Man(a1-6)]Man(b1-4)GlcNAc(b1-4)GlcNAc
# Summary of the method: as §1
# [11] = target: Neu5Ac(a2-6)Gal(b1-4)GlcNAc(b1-2)Man(a1-3)[Neu5Ac(a2-3)Gal(b1-4)GlcNAc(b1-2)Man(a1-6)]Man(b1-4)GlcNAc(b1-4)GlcNAc
# Summary of the method: as §1
# [12] = target: Neu5Ac(a2-6)Gal(b1-4)GlcNAc(b1-2)Man(a1-3)[Neu5Ac(a2-6)Gal(b1-4)GlcNAc(b1-2)Man(a1-6)]Man(b1-4)GlcNAc(b1-4)GlcNAc
# Summary of the method: as §1
# [13] = target: Neu5Ac(a2-6)Gal(b1-4)GlcNAc(b1-2)Man(a1-3)[Neu5Ac(a2-6)Gal(b1-4)GlcNAc(b1-2)Man(a1-6)]Man(b1-4)GlcNAc(b1-4)[Fuc(a1-6)]GlcNAc
# Summary of the method: as §1
# [14] = target: Neu5Ac(a2-6)Gal(b1-4)GlcNAc(b1-2)Man(a1-6)Man(b1-4)GlcNAc(b1-4)GlcNAc
# Summary of the method: as §1
# [15] = target: Neu5Ac(a2-6)Gal(b1-4)GlcNAc(b1-2)Man(a1-6)[Gal(b1-4)GlcNAc(b1-2)Man(a1-3)]Man(b1-4)GlcNAc(b1-4)GlcNAc
# Summary of the method: as §1
# [16] = target: Neu5Ac(a2-6)Gal(b1-4)GlcNAc(b1-2)Man(a1-6)[GlcNAc(b1-2)Man(a1-3)]Man(b1-4)GlcNAc(b1-4)GlcNAc
# Summary of the method: as §1
# [17] = target: Neu5Ac(a2-6)Gal(b1-4)GlcNAc(b1-2)Man(a1-6)[Man(a1-3)]Man(b1-4)GlcNAc(b1-4)GlcNAc
# Summary of the method: as §1
# [18] = target: Neu5Ac(a2-6)Gal(b1-4)GlcNAc(b1-2)[Neu5Ac(a2-6)Gal(b1-4)GlcNAc(b1-4)]Man(a1-3)[GlcNAc(b1-4)][Neu5Ac(a2-6)Gal(b1-4)GlcNAc(b1-2)[Neu5Ac(a2-6)Gal(b1-4)GlcNAc(b1-6)]Man(a1-6)]Man(b1-4)GlcNAc(b1-4)GlcNAc
# Summary of the method: as §1
# [19] = target: Neu5Ac(a2-6)Gal(b1-4)GlcNAc(b1-2)[Neu5Ac(a2-6)Gal(b1-4)GlcNAc(b1-4)]Man(a1-3)[GlcNAc(b1-4)][Neu5Ac(a2-6)Gal(b1-4)GlcNAc(b1-4)Man(a1-6)]Man(b1-4)GlcNAc(b1-4)GlcNAc
# Summary of the method: as §1
# [20] = target: Neu5Ac(a2-6)Gal(b1-4)GlcNAc(b1-2)[Neu5Ac(a2-6)Gal(b1-4)GlcNAc(b1-6)]Man(a1-6)[Neu5Ac(a2-6)Gal(b1-4)GlcNAc(b1-2)Man(a1-3)][GlcNAc(b1-4)]Man(b1-4)GlcNAc(b1-4)GlcNAc
# Summary of the method: as §1
# [21] = target: Neu5Ac(a2-6)Gal(b1-4)GlcNAc(b1-3)Gal(b1-3)GlcNAc
# Summary of the method: as §1
# [22] = target: Neu5Ac(a2-6)Gal(b1-4)GlcNAc(b1-3)Gal(b1-4)GlcNAc
# Summary of the method: as §1
# [23] = target: Neu5Ac(a2-6)Gal(b1-4)GlcNAc(b1-3)Gal(b1-4)GlcNAc(b1-2)Man(a1-3)[Neu5Ac(a2-6)Gal(b1-4)GlcNAc(b1-3)Gal(b1-4)GlcNAc(b1-2)Man(a1-6)]GalNAc
# Summary of the method: as §1
# [24] = target: Neu5Ac(a2-6)Gal(b1-4)GlcNAc(b1-3)Gal(b1-4)GlcNAc(b1-3)Gal(b1-4)GlcNAc
# Summary of the method: as §1
# [25] = target: Neu5Ac(a2-6)Gal(b1-4)GlcNAc(b1-3)Gal(b1-4)GlcNAc(b1-3)Gal(b1-4)GlcNAc(b1-2)Man(a1-3)[Neu5Ac(a2-6)Gal(b1-4)GlcNAc(b1-3)Gal(b1-4)GlcNAc(b1-3)Gal(b1-4)GlcNAc(b1-2)Man(a1-6)]GalNAc
# Summary of the method: as §1
# [26] = target: Neu5Ac(a2-6)Gal(b1-4)GlcNAc(b1-3)Gal(b1-4)GlcNAc(b1-3)GalNAc
# Summary of the method: as §1
# [27] = target: Neu5Ac(a2-6)Gal(b1-4)GlcNAc(b1-3)Gal(b1-4)GlcNAc(b1-3)[Neu5Ac(a2-6)Gal(b1-4)GlcNAc(b1-3)Gal(b1-4)GlcNAc(b1-6)]GalNAc
# Summary of the method: as §1
# [28] = target: Neu5Ac(a2-6)Gal(b1-4)GlcNAc(b1-3)Gal(b1-4)GlcNAc(b1-6)[Gal(b1-3)]GalNAc
# Summary of the method: as §1
# [29] = target: Neu5Ac(a2-6)Gal(b1-4)GlcNAc(b1-3)Gal(b1-4)[Fuc(a1-3)]GlcNAc(b1-3)Gal(b1-4)[Fuc(a1-3)]GlcNAc
# Summary of the method: as §1
# [30] = target: Neu5Ac(a2-6)Gal(b1-4)GlcNAc(b1-3)GalNAc
# Summary of the method: as §1
# [31] = target: Neu5Ac(a2-6)Gal(b1-4)GlcNAc(b1-3)[Neu5Ac(a2-6)Gal(b1-4)GlcNAc(b1-6)]GalNAc
# Summary of the method: as §1
# [32] = target: Neu5Ac(a2-6)Gal(b1-4)GlcNAc(b1-6)GalNAc
# Summary of the method: as §1
# [33] = target: Neu5Ac(a2-6)Gal(b1-4)GlcNAc(b1-6)[Gal(b1-3)GlcNAc(b1-3)]Gal(b1-4)Glc
# Summary of the method: as §1
# [34] = target: Neu5Ac(a2-6)Gal(b1-4)GlcNAc(b1-6)[Gal(b1-3)]GalNAc
# Summary of the method: as §1
# [35] = target: Neu5Ac(a2-6)Gal(b1-4)GlcNAc6S
# Summary of the method: as §1
# [36] = target: Neu5Ac(a2-6)GalNAc
# Summary of the method: as §1
# [37] = target: Neu5Ac(a2-6)GalNAc(b1-4)GlcNAc
# Summary of the method: as §1
# [38] = target: Neu5Ac(a2-6)GalNAc(b1-4)GlcNAc6S
# Summary of the method: as §1
binder,measurement,setting,value
B1,glycan array binding signal (z-score),[1],-0.232
same,glycan array binding signal (z-score),[2],-0.278
same,glycan array binding signal (z-score),[3],-0.313
same,glycan array binding signal (z-score),[4],-0.314
same,glycan array binding signal (z-score),[5],-0.338
same,glycan array binding signal (z-score),[6],-0.325
same,glycan array binding signal (z-score),[7],-0.301
same,glycan array binding signal (z-score),[8],-0.338
same,glycan array binding signal (z-score),[9],-0.314
same,glycan array binding signal (z-score),[10],-0.332
same,glycan array binding signal (z-score),[11],-0.318
same,glycan array binding signal (z-score),[12],-0.286
same,glycan array binding signal (z-score),[13],-0.289
same,glycan array binding signal (z-score),[14],-0.309
same,glycan array binding signal (z-score),[15],-0.299
same,glycan array binding signal (z-score),[16],-0.319
same,glycan array binding signal (z-score),[17],-0.356
same,glycan array binding signal (z-score),[18],-0.311
same,glycan array binding signal (z-score),[19],-0.332
same,glycan array binding signal (z-score),[20],-0.33
same,glycan array binding signal (z-score),[21],-0.27
same,glycan array binding signal (z-score),[22],-0.287
same,glycan array binding signal (z-score),[23],-0.152
same,glycan array binding signal (z-score),[24],-0.312
same,glycan array binding signal (z-score),[25],0.033
same,glycan array binding signal (z-score),[26],-0.305
same,glycan array binding signal (z-score),[27],-0.266
same,glycan array binding signal (z-score),[28],0.25
same,glycan array binding signal (z-score),[29],-0.333
same,glycan array binding signal (z-score),[30],-0.245
same,glycan array binding signal (z-score),[31],-0.307
same,glycan array binding signal (z-score),[32],-0.318
same,glycan array binding signal (z-score),[33],-0.251
same,glycan array binding signal (z-score),[34],0.113
same,glycan array binding signal (z-score),[35],-0.323
same,glycan array binding signal (z-score),[36],-0.35
same,glycan array binding signal (z-score),[37],-0.352
same,glycan array binding signal (z-score),[38],-0.286
